From PMC10278067 (ACS Chemical Biology, 2023)

Target: T1, HER2 on MC38-HER2 cells (Homo sapiens (; inferred from …, UniProt P04626)
T1 construct: HER2, stably expressed on MC38 murine colon adenocarcinoma cells; source: HER2-transduced MC38 mouse colon cancer cells, stably expressing, on cells
Assay: flow cytometry on cells; MC38-HER2 cells stained with 100 nM αHER2 SwAb or αHER2-Fc, 4 °C 30 min; then with or without 10 μM Venetoclax, 37 °C 1 h; detected with A647 anti-human Fc antibody
Settings: one partner purified

binding result: binds
B1: Fc-fused αHER2 (conventional αHER2 antibody) (Fc fusion)
VH: EVKLVESGGGLVQPGGSLRLSCATSGFNIKDTYIHWVRQAPGKGLEWVARIYPTNGYTRYADSVKGRFTISADTSKNTAYLQMNSLRAEDTAVYYCSRWGGDGFYAMDYWGQGTTVTVSS
VL: [about 100 residues not spelt out]
notes: also called αHER2-Fc
